Here are results for 56 sequences from the supplement of paper PMC11417369.

± gives the standard deviation of the averaged measurements. The list shows a part of the results.

The experiment concerns PfAP2-LT AP2 domain (GST-tagged). Briefly: gcPBM binding intensity (ln(normalized median fluorescence intensity)); higher = stronger DNA binding. The essentials:
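For binding intensity, the highest Masliner-normalised natural-log median intensity across replicate spots of either probe orientation was taken. Protein bound to the array was stained with Alexa488 anti-GST antibody and scanned at 488 nm. The protein, GST-tagged P. falciparum DNA-binding domains from E. coli at about 25 μg on average, had been applied for 1 h to an Agilent 4 × 180k array of primer-extended double-stranded 36-bp intergenic genomic probes and negative controls.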
With “AATATATTTAATGAGTGTACATTATTTATTATTATT [XGTACX_site6889]”, the “gcPBM binding intensity (ln)” value amounted to 8.83 ± 0.41. Under “AAATAAAAAAAATAAAAGCAATCATAATAAAAATCT [CACACA_negctrl_site161]” stands 8.79 ± 0.46; under “AATTTATATTAAAATTGTACATTTCTTCTATAATAC [XGTACX_site8639]”, 8.63 ± 0.42. Regarding “TTTGGCTAGTCAAGTTGTACAAAAAAAAAAAAAAAA [XGTACX_site8382]”, the “gcPBM binding intensity (ln)” value was 8.38 ± 0.54.

Regarding “ATACTTTTAATATGCACATGCAAATATGAAATATCG [TGCATGCA_site603]”, the “gcPBM binding intensity (ln)” value came to 8.67 ± 0.28. Under “TACCAAAAGAAACACACACACAAAATATATAAATAT [CACACA_site1869]” stands 9.88 ± 0.28; under “TCCCATATATATATATATATATATATATATAATAAT [TGCATGCA_negctrl_site41]”, 9.33 ± 0.085; under “TTTTTATAGGTAAAAACACACGCTAAAAATAATTAA [CACACA_site3731]”, 8.59 ± 0.41. Take “CATTTTGTTTTAAAGTGTACATTATGTAATATAAAA [XGTACX_site647]”: the “gcPBM binding intensity (ln)” value was 8.4 ± 0.47. Under “ATTTATATTACCCTTGCATGTAGGTGCAATTTTTTT [TGCATGCA_site757]” stands 9.11 ± 0.38. Turning to “AAATAAATAAATAAATAAACAAATATGTATAAATGG [XGTACX_negctrl_site153]”, the “gcPBM binding intensity (ln)” value worked out at 8.85 ± 0.51. Then “TTTATAATTTATATCACACACATATATATATAGTAA [CACACA_site8]”, with 8.89 ± 0.4.

Turning to “AATAAATATATATTCACACACAAACATATATATATA [CACACA_site4023]”, the “gcPBM binding intensity (ln)” value amounted to 9.4 ± 0.39.

As to “AGGTACTTTTTTAAAACACACATATAATAAATACAC [CACACA_site4730]”, the “gcPBM binding intensity (ln)” value turned out to be 8.83 ± 0.51.

Take “TCAACTATCAATATAGTGCATTTTTTTTGGAAAACC [GTGCAC_site9927]”: the “gcPBM binding intensity (ln)” value came to 8.41 ± 0.52. For the sequence “TATCAAAATTAGTATACACACAAAATTAATCAAATA [CACACA_site7117]”, the “gcPBM binding intensity (ln)” value is 8.87 ± 0.42.

As for “ATAAGATTAAACATTGCACACAGAAATATATTTTCT [CACACA_site8743]”, the “gcPBM binding intensity (ln)” value is 9.12 ± 0.34. Take “CCTATATAATATATTTGTACTTAATAATTAAAGTGT [XGTACX_site5151]”: the “gcPBM binding intensity (ln)” value is 8.61 ± 0.47. Under “TATATATATATATATTGTACATATGTAACCTTTTAA [XGTACX_site3914]” stands 9.18 ± 0.23. Then “TTTTTTAGATTACATAAATATAAATATAAATATATA [GTGCAC_negctrl_site459]”, with 8.07 ± 0.47; and “TAAAATAAAAATTTATGTACACATAAAAAAACAAAA [XGTACX_site1112]”, with 8.71 ± 0.63; and “GAGAGTACCTATATTGCATGCAGACTTTTTAAATAT [TGCATGCA_site564]”, with 8.99 ± 0.3. “TTAATAAGAGAGCAATAGGTGGACTGTTTCTTTTAT [CACACA_negctrl_site1239]”: the “gcPBM binding intensity (ln)” value was 8.72 ± 0.39. Regarding “TTTTTTTTTTTTTGTAGTACATTATGTATATTTTTA [XGTACX_site7810]”, the “gcPBM binding intensity (ln)” value worked out at 8.64 ± 0.52. Take “GTTAAAATAATATGGTGTACAAATATATAAGTTCAT [XGTACX_site3262]”: the “gcPBM binding intensity (ln)” value was found to be 8.99 ± 0.42. Under “ATATATATATATAAAAGTACTTATTTTTATTTACAT [XGTACX_site4299]” stands 9.13 ± 0.28; under “AATTTACATATATATTGTACATTTATGTATATATAT [XGTACX_site4186]”, 8.99 ± 0.45; under “TAATATTTTTTGTGTACACATATATATATATATATA [CACACA_site5504]”, 9.505 ± 0.064. For the sequence “TACTTATATTGAAATGGTACAGATAAAAAAAAAAAA [XGTACX_site1407]”, the “gcPBM binding intensity (ln)” value was found to be 8.45 ± 0.52. Regarding “ACATTCTATCTAAGTACACACATTAATTTTTTTTTT [CACACA_site4106]”, the “gcPBM binding intensity (ln)” value was found to be 8.96 ± 0.52. As to “TTTTGTAATGTGAATATTTGTATATTATTTGTATAT [CACACA_negctrl_site1677]”, the “gcPBM binding intensity (ln)” value was found to be 8.73 ± 0.47.

Take “AATTTCTTCTTAGGGTGTACAATTTGACATAAGGAA [XGTACX_site1773]”: the “gcPBM binding intensity (ln)” value was determined as 8.45 ± 0.27. Then “ATCTTATATCGTAGAGATTTTTTTTTTTTTTCATTT [XGTACX_negctrl_site140]”, with 8.55 ± 0.51; and “GTAATATATATTAAGTAATAGTTTATCTTAGGAAAA [TGCATGCA_negctrl_site302]”, with 8.57 ± 0.52. Consider “AATTAGATGGATAAATGTACATATGTGAATATATTT [XGTACX_site85]”, for which the “gcPBM binding intensity (ln)” value stood at 8.9 ± 0.41.

On to “AAAAAAAAAAAAAACACACAAACATCAAATTATTAT [CACACA_site1838]”, for which the “gcPBM binding intensity (ln)” value is 8.95 ± 0.54. On to “GTGCCCTTTTTAATAACATGCAAATAACATATTTAT [TGCATGCA_site709]”, for which the “gcPBM binding intensity (ln)” value amounted to 8.76 ± 0.34.

As to “TTTATATTATACGCACTAATATATATATATATATAT [TGCATGCA_negctrl_site47]”, the “gcPBM binding intensity (ln)” value was found to be 9.1 ± 0.37. Consider “ATATAACACAAGGGCACACATATACCTTTCCTTTTT [CACACA_site412]”, for which the “gcPBM binding intensity (ln)” value stood at 9.02 ± 0.42. Under “CTTCTTGTAAAATTTGCATGTAATTAAAAGAGAATG [TGCATGCA_site484]” stands 8.31 ± 0.35.

Regarding “GCCTTTTAGTATTTCACACACGTAAATGAGTATATC [CACACA_site4748]”, the “gcPBM binding intensity (ln)” value was 9.17 ± 0.3. In the case of “TTCCCTATCTTTTCAGTGCATTTTGTTTCCTACCTT [GTGCAC_site9813]”, the “gcPBM binding intensity (ln)” value stood at 9.07 ± 0.58. Then “TTTAAATATATATATTGTACAAAAAAAAATAATAAA [XGTACX_site4759]”, with 8.48 ± 0.52; and “ATAAAATTTATGACTTGTACATGTAAATAAAATATA [XGTACX_site762]”, with 8.77 ± 0.38; and “TGTAGAACTCAATATTGTACATTATATAAAATGGGA [XGTACX_site3857]”, with 8.68 ± 0.37. Then “ATATATATATATTGTACACACATTTATGCATATATA [CACACA_site5738]”, with 9.37 ± 0.3; and “TTTTTTTGCATTTCATGTACATATATTGAGCTTAAA [XGTACX_site8485]”, with 8.71 ± 0.45; and “ATATTACAGTACAATACATGCATATGGAAAAAAAAA [TGCATGCA_site72]”, with 8.92 ± 0.47.

For “ATTGGTTCCCCTCTCTTTTCAATATATTTTTTTTTT [XGTACX_negctrl_site259]”, the “gcPBM binding intensity (ln)” value is 8.71 ± 0.6.

As for “ATAAAGAATATAAATACACACTTAAATATAGATTAT [CACACA_site7804]”, the “gcPBM binding intensity (ln)” value was 8.88 ± 0.43.

For the sequence “TTCAAATGATTTATGTGTACATAAAATTATTTTTTA [XGTACX_site107]”, the “gcPBM binding intensity (ln)” value turned out to be 8.24 ± 0.43. Under “GATATAGGGCGTATGTTAATCGTGAAAGAGTGTCTT [GTGCAC_negctrl_site102]” stands 8.99 ± 0.46; under “AAAAAATTAAAAATCACACATAAATATATATAAAAA [CACACA_site4192]”, 8.62 ± 0.54; under “TAATGAAGCTTATGCACACGTTCATTATTTATATTA [CACACA_site3219]”, 8.88 ± 0.33. As to “TGGTCTTTTAAACAAAAATATAAATTTTTAAATATG [CACACA_negctrl_site392]”, the “gcPBM binding intensity (ln)” value worked out at 8.09 ± 0.45. Turning to “AAGAAAATTGTCTGAAGTACAAAACATTAATAATAT [XGTACX_site4864]”, the “gcPBM binding intensity (ln)” value is 8.88 ± 0.38.
